Among all 150,000 compounds or so, about 540 (0.36%) showed an effect of 50% or more. Some of the results follow.

As usually defined, the % Inhibition is the drop in the measured response relative to a control, in per cent.

This experiment deals with Plasmodium falciparum. In words: Primary screen in NF54 nanoGlo assay, in single point, at 2uM, 72h; a lower Z score goes with more inhibition. The format is functional, Erythrocyte. To be noted: timepoint 72 hour.
Turning to `Cc1ccc(CCC(=O)NCC2(CO)CCC2)c(C)c1`, the “% Inhibition” value was -2% and the Z score stood at 0.42.
The corresponding values for `CC[C@H](C)NC(=O)NCCn1nnc2cc(S(=O)(=O)N(CC)CC)ccc21` are 31% and -3.53.
The corresponding values for `Cc1cccc2nc(C3CCN(c4cccnc4C#N)CC3)oc12` are -10% and 1.12.
In the case of `COCCNC(=O)[C@@H]1COC2(CCN(C(=O)c3cccs3)CC2)N1C(=O)c1ccccc1`, the “% Inhibition” value is reported as 4% and the Z score is -0.56.
In the same order, the values of `CN(Cc1ccccc1)Cn1nc(-c2ccccc2)oc1=S` are -7% and 1.17.
With `CCc1cc(C(=O)N2CCN(c3cccc(OC)c3)CC2)nc2cc(-c3ccccn3)nn12`, the “% Inhibition” value turned out to be 1% and the Z score is recorded as -0.13.
The corresponding values for `CN(C)c1ncc2c(n1)CCN(Cc1ncc(Cl)s1)C2` are -9% and 1.88.
In the same order, the values of `c1cncc([C@@H]2c3nc[nH]c3CCN2Cc2ccccc2OCCn2ccnc2)c1` are -7% and 1.21.
The corresponding values for `CCCN(C)C(=O)Cn1c(C)ccc(NS(=O)(=O)c2ccc(OC)cc2)c1=O` are -13% and 1.73.
As to `COc1ccc(N2CCN(Cc3nc(C(=O)Nc4ccc(F)cc4)co3)CC2)cc1`, the “% Inhibition” value amounted to 6% and the Z score is listed as -0.58.
Turning to `CC(=O)N1CCC(CC(=O)NCc2ccccc2)(N2Cc3ccccc3C2=O)CC1`, the “% Inhibition” value is on record as -12% and the Z score was found to be 1.54.
Turning to `O=C(CCc1nc2ccccc2o1)Nc1ncc(Cc2ccccc2)s1`, the “% Inhibition” value is on record as -3% and the Z score was found to be 0.49.
The corresponding values for `O=C(c1cc(CN2CCC(O)CC2)on1)N1CC[C@@H]2CCCC[C@H]2C1` are -14% and 1.37.
On to `O=C(O)[C@@H]1CC2(CCNCC2)CN1C(=O)c1ccccc1-c1ccccc1`, for which the “% Inhibition” value is -5% and the Z score was determined as 0.85.
Take `CC(C)(C)CN(CCC#N)CC(=O)NC1CCCC1`: the “% Inhibition” value is listed as -8% and the Z score is 1.1.
With `O=C(NC[C@@H](c1ccco1)n1cccn1)Nc1ccccc1`, the “% Inhibition” value came to 11% and the Z score is -1.45.
The corresponding values for `CN(CCc1ccc(Cl)cc1)C(=O)c1cncnc1C1CC1` are 6% and -0.84.
For the molecule `C#CCN(C)CCCNC(=O)c1cn2c(n1)CCCC2`, the “% Inhibition” value is given as -4% and the Z score is recorded as 0.63.
Consider `c1cc(-c2noc(COc3nsnc3N3CCOCC3)n2)ccn1`, for which the “% Inhibition” value is recorded as -6% and the Z score is 0.85.
In the same order, the values of `Cc1nc(C(C)(C)C)sc1[C@H](C)NCC1(O)CCCCC1` are -2% and 0.46.
The corresponding values for `O=C(NCCCOCC1CC1)Nc1cccc(-c2nnco2)c1` are -20% and 2.04.
With `O=C(c1cc2c(s1)CCCCC2)N1CC(CO)C1`, the “% Inhibition” value turned out to be 27% and the Z score is listed as -3.05.
In the same order, the values of `Cc1ccc(CN2CCCn3nc(CNC(=O)C4CCC4)cc3C2)s1` are -9% and 1.78.
Regarding `Cc1[nH]ccc1C(=O)NC(c1ccc(Cl)cc1)C1CN(C)CCO1` (stereo not drawn), the “% Inhibition” value is on record as -1% and the Z score turned out to be 0.17.
The corresponding values for `C[C@H](Oc1ccc(C(=O)NCc2ccccc2CN2CCN(C)CC2)cn1)c1ccccc1` are -10% and 1.4.
`Nc1ccc(Br)c(C2CC2)n1`: the “% Inhibition” value is listed as -16% and the Z score is recorded as 2.14.
Consider `Cc1ncccc1NC(=O)OC(C)(C)C`, for which the “% Inhibition” value is reported as -4% and the Z score stood at 0.55.
The corresponding values for `CNS(=O)(=O)c1ccc(Cl)c(S(=O)(=O)NC)c1` are -11% and 1.47.
In the same order, the values of `COc1ccc(OC)c([C@@H](O)CNC(=O)Cc2c(C)nn(C)c2C)c1` are -18% and 3.31.
Take `CCCCC(=O)Nc1ccc2c(c1)nc(CN1CCCCCC1)n2C`: the “% Inhibition” value is -2% and the Z score amounted to 0.26.
Turning to `O=C(Cc1cccc(C(F)(F)F)c1)N1C[C@@H]2C[C@H]1C(=O)N2c1ccccc1Cl`, the “% Inhibition” value is -7% and the Z score worked out at 1.4.
In the same order, the values of `CC(C)n1ncc2c1C[C@@H](Nc1nc(C3CC3)ns1)CC2` are -8% and 1.41.
The corresponding values for `C=C(C)CNC(=O)Nc1ccc(N(C)C)cn1` are -2% and 0.23.
In the same order, the values of `COC(=O)[C@H]1CN(c2nnnn2Cc2cccc3[nH]ccc23)C[C@@H]1C` are -7% and 1.13.
With `N#Cc1cnc(NCCCNc2cnc(C#N)cn2)cn1`, the “% Inhibition” value is recorded as -6% and the Z score amounted to 0.66.
As to `Cc1nc(C)c(C(=O)NCC2(Cc3ccccc3)CCC2)o1`, the “% Inhibition” value is listed as 5% and the Z score is reported as -0.65.
As for `C[C@H]1CCC[C@@H](C(=O)OC(C)(C)C)N1C(=O)CCS(C)(=O)=O`, the “% Inhibition” value was -17% and the Z score is 1.98.
The corresponding values for `CCN(CC)c1ncc2c(n1)CC[C@H](C(=O)NCc1ccccc1)C2` are -4% and 0.78.
As for `O=C(c1cc(C2CC2)nc2ccccc12)N1CCN2C(=O)OC[C@H]2C1`, the “% Inhibition” value is -10% and the Z score turned out to be 1.98.
The corresponding values for `N#Cc1cccc(NCCN2CCC[C@H](CO)C2)n1` are -11% and 2.
In the same order, the values of `CC1OCCN(C(=O)C2=CCCC2)C1C` (stereo not drawn) are 4% and -0.54.
The corresponding values for `C[C@H](NC(=O)C(=O)Nc1cccn(C)c1=O)C(C)(C)c1ccccc1` are -13% and 1.31.
As for `O=C(Cc1ccccc1)N[C@@H]1c2ccccc2C2(CCNCC2)[C@H]1O`, the “% Inhibition” value was -4% and the Z score is 0.62.
For `Cc1noc(-c2c(NC(=O)COc3ccccc3F)sc3c2CCOC3)n1`, the “% Inhibition” value is listed as -6% and the Z score was 0.95.
`COc1ccccc1-n1nc(CN(C)C(=O)CC2CCCC2)c2c1CCN(Cc1ccccc1F)C2`: the “% Inhibition” value was -9% and the Z score came out at 0.85.
In the same order, the values of `Nc1ncc(S(=O)(=O)NCc2ccc(Br)cc2)cn1` are -9% and 1.18.
The corresponding values for `CN1C[C@@H](NCc2ccc(Cl)c(Cl)c2)CCC1=O` are -15% and 2.81.
For the molecule `COc1ccc([C@H]2CN(C(=O)c3ccc4ncccc4c3)C[C@@H]2N)cc1`, the “% Inhibition” value is given as 1% and the Z score is -0.21.
The corresponding values for `Clc1ccc(-c2cc(-c3nc4ccccc4[nH]3)c(-c3ccccc3)nn2)cc1` are -8% and 1.67.
In the case of `Cc1ccc(C)c(S(=O)(=O)NCCCc2cnoc2)c1`, the “% Inhibition” value is given as -4% and the Z score was determined as 0.62.
On to `CCn1nc(C)c(CN2C[C@@H]3CC[C@H]2CN(Cc2ccc(F)cc2)C3)c1C`, for which the “% Inhibition” value was found to be 0% and the Z score is recorded as -0.04.
In the same order, the values of `O=C1C[C@H](C(=O)N(Cc2ccco2)C2CC2)CN1Cc1cccc(C(F)(F)F)c1` are 7% and -0.95.
As for `Cc1nc(-c2cccc(C#N)c2)nn1C[C@H](O)c1cccc(Cl)c1`, the “% Inhibition” value is listed as -15% and the Z score is 1.24.
In the same order, the values of `C[C@@H](c1ccccc1)N(C)CCCCS(=O)(=O)O` are -2% and 0.4.
On to `O=C(NCc1cncn1C1CC1)N1CCC[C@H]1c1nc2ccccc2s1`, for which the “% Inhibition” value was -17% and the Z score was 2.96.
The corresponding values for `CC(C)c1oncc1NC(=O)c1cccc(=O)[nH]1` are -13% and 1.75.
Consider `CCOC(=O)c1nc(NCCc2ccc(Cl)cc2)c2c(-c3ccc(Cl)cc3)noc2n1`, for which the “% Inhibition” value was determined as 7% and the Z score is listed as -1.24.
The corresponding values for `CCCCCC(=O)N[C@H]1C[C@@H](C)N(C(=O)Nc2cccc(Cl)c2)c2ccc(C)cc21` are -11% and 1.39.
In the same order, the values of `C[C@H](NC(=O)OCc1ccccc1)C(=O)N1CCOC(c2ccccc2)C1` (stereo partly drawn) are -4% and 0.7.
In the same order, the values of `CCCc1noc(CN(C)C(=O)CNS(C)(=O)=O)n1` are -4% and 0.79.
Regarding `O=C(Cc1n[nH]c(=O)c2ccccc12)NCc1nnc2ccccn12`, the “% Inhibition” value is given as -11% and the Z score is on record as 1.52.
In the same order, the values of `COc1ccc(C(=O)NC[C@@]23CCCC=C2N(CC2CC2)C(=O)CC3)cc1` are -9% and 1.34.
Regarding `O=C1C[C@H](c2nc(-c3ccncc3)no2)CN1c1ccccc1`, the “% Inhibition” value is reported as -15% and the Z score was 1.59.
The corresponding values for `CC(C)(C)c1ccc(C(=O)N2CCC3(CC2)C(=O)N(CC(=O)N2CCCCC2)CN3c2ccccc2)cc1` are -13% and 1.99.
In the same order, the values of `C[C@@H](c1cccnc1)N(Cc1ccc(OC(F)F)c(F)c1)CC1CCOCC1` are 16% and -2.12.
`Cc1nn(-c2ccccc2)c2nc(C(=O)N(C)CC(=O)N3CCOCC3)ccc12`: the “% Inhibition” value was -10% and the Z score was 1.19.
In the same order, the values of `Cc1ccc(C)c(NS(=O)(=O)c2cc(-c3nc(C)cs3)n(CC(=O)N3CCCC3)c2)c1` are 3% and -0.32.
In the same order, the values of `OCc1ccc(-c2cccc3c2CCC3)cn1` are -15% and 1.48.
As for `O=C(CCc1cnccn1)NCCCn1cc(Cl)cn1`, the “% Inhibition” value is reported as -8% and the Z score amounted to 1.26.
For `Cc1sc(S(N)(=O)=O)cc1NC(=O)NCCc1csc(N2CCCC2)n1`, the “% Inhibition” value is -5% and the Z score turned out to be 0.98.
The corresponding values for `CCc1csc(-c2ccc(S(=O)(=O)NCc3ccccc3C(F)(F)F)s2)n1` are -1% and 0.13.
With `Cc1ccc(N2C(=O)N(Cc3c(C)noc3C)S(=O)(=O)c3cccnc32)cc1F`, the “% Inhibition” value is listed as -25% and the Z score is 2.56.
As to `Cc1ccc([C@H](C)NCc2nnc(C(C)C)n2C)o1`, the “% Inhibition” value is -14% and the Z score is 1.87.
In the same order, the values of `CC1(C)C[C@H](NCc2cccnc2OCC(F)F)C(C)(C)O1` are -4% and 0.67.
Turning to `O=C(NCC(=O)N(C[C@H]1CCCO1)C1(C(=O)NC2CCCCC2)CCCCC1)c1ccccc1`, the “% Inhibition” value came to 49% and the Z score is on record as -6.38.
On to `Cc1ccc([C@@H](c2ccncc2)n2ccnc2-c2ccco2)cc1`, for which the “% Inhibition” value is given as -4% and the Z score is 0.57.
The corresponding values for `O=C(NC1CC1)[C@@H]1CN(Cc2cc(F)cc(F)c2)C[C@H]1CO` are -6% and 0.92.
Consider `O=C(Cc1cncs1)N1CCC[C@H](OCCO)C1`, for which the “% Inhibition” value was -2% and the Z score is reported as 0.33.
The corresponding values for `Cc1c[nH]c(CN(C)Cc2ccc(-n3cccn3)cc2)c(C)c1=O` are 4% and -0.54.
In the same order, the values of `O=C(NCc1ccccn1)c1cn2cc(C(F)(F)F)cc(Cl)c2n1` are -18% and 3.52.
The corresponding values for `CCN(CC)C[C@H](C)NS(=O)(=O)CCNS(=O)(=O)c1ccccc1` are -16% and 2.
`CCCNC(=O)[C@@H]1CCCC[C@@H]1C(=O)Nc1c(C)c(C)cc2[nH]c(=O)[nH]c12`: the “% Inhibition” value is on record as -8% and the Z score stood at 0.9.
The corresponding values for `CCC1(NC(=O)N2CCN(c3ccccc3)C(=O)[C@@H]2C)CCCC1` are -12% and 1.16.
In the same order, the values of `O=C1c2ccccc2C(=O)N1Cc1nc2ccccc2c(=O)[nH]1` are 0% and 0.01.

Source of the values: ChEMBL document CHEMBL4888484, “Replenishing the malaria drug discovery pipeline: Screening and hit evaluation of the MMV Hit Generation Library 1 (HGL1) against asexual blood stage Plasmodium falciparum ,using a nano luciferase reporter read-out” (2022).
